Measured values reported in BigSolDB 2.1.

Nc1ccc(S(N)(=O)=O)cc1
solubility (mole fraction)
Settings	in 1,4-dioxane	in DMF	in DMSO	in acetonitrile	in ethanol	in water
293.15 K	0.0789	0.0187	0.0127	0.00367	0.00729	0.000692
303.15 K	0.101	0.0253	0.0172	0.00512	0.0114	0.00114
308.15 K	0.105	0.0322	0.0207	0.00757	0.0148	0.00147
313.15 K	0.115	0.0427	0.0246	0.0113	0.019	0.00187
323.15 K	0.143	0.0617	0.033	0.0169	0.0268	0.00241
